Reference: US20100168225A1, “Small-Molecule Hepatitis C Virus (HCV) NS3/4A Serine Protease Inhibitors” (priority 2007, published 2010)

How the values were obtained:
[1] = molecular target: T1, HCV NS3/4A protease (Hepatitis C virus genotype 1a, UniProt P27958); test: biochemical; format: biochemical
[2] = molecular target: T1, HCV NS3/4A protease; conditions: for ID90: HPLC; for k0 (base) / k1 (max) / k2 (xhalf) / k3 (rate): sigmoidal fit parameter
[3] = molecular target: T1, HCV NS3/4A protease; test: biochemical; conditions: HPLC
[4] = ID50 (μM) (by kinetic assay) HCV NS3^PRO
[5] = Expt 7-37, fit did not converge after 40 iterations

`Cc1cc(=O)oc2cc(O)c(O)cc12` [Compound C3, 4-methylesculetin] showed an IC50 ([1]; ID50 (μM) (by kinetic assay)) of over 300 µM.

Molecule `O=c1ccc2cc(O)c(O)cc2o1` [Compound C4, Esculetin] has an IC50 ([1]; ID50 (μM) (by kinetic assay)) of 280 µM and an IC50 ([1]; ID50 (μm)-by kinetic assay) of 280 µM.

With `COc1cc2ccc(=O)oc2cc1OC` [Compound C5, Scoparone] the IC50 ([1]; ID50 (μM) (by kinetic assay)) was over 300 µM.

For `COc1cc2oc(=O)ccc2cc1O` [Compound C6, Isoscopoletin], the IC50 ([1]; ID50 (μM) (by kinetic assay)) was over 300 µM.

Molecule `COc1cc2ccc(=O)oc2cc1O` [Compound C7, Scopoletin] has an IC50 ([1]; ID50 (μM) (by kinetic assay)) of over 300 µM.

With `Cc1cc(=O)oc2c(O)c(O)ccc12` [Compound C8, 4-methyldaphnetin] the IC50 ([1]; ID50 (μM) (by kinetic assay)) was 109 µM and the IC50 ([1]; ID50 (μm)-by kinetic assay) was 108 µM.

`Cc1cc(=O)oc2cc(O)cc(O)c12` [Compound C9, 5,7-dihydroxy-4-methylcoumarin] was tested, and the IC50 ([1]; ID50 (μM) (by kinetic assay)) was over 300 µM.

Work on `O=c1ccc2ccc(O)c(O)c2o1` [Compound C10, Daphnetin] yielded an IC50 ([1]; ID50) of 23.8 µM, an IC50 ([1]; ID50 (μM) (by kinetic assay)) of 25 µM and an IC50 [1, 4] of 25 µM. For the same molecule, the IC50 ([1]; ID50 (μm)-by kinetic assay) was 25 µM.

`O=c1oc2cc(O)c(O)cc2cc1O` [Compound C11, 3-hydroxyesculetin] was tested, and the Ki [1] was 0.46 µM, the mechanism of inhibition [1] was “non-competitive” and the IC50 ([1]; ID50) was 3 µM. It also gave an IC50 ([1]; ID50 (μM) (by kinetic assay)) of 3.07 µM, an IC50 [1, 4] of 3.07 µM and an IC50 ([1]; ID50 (μm)-by kinetic assay) of 3.07 µM.

Molecule `CC(=O)Nc1cc2cc(OC(C)=O)c(OC(C)=O)cc2oc1=O` [Compound C12, 3-aminoacyl-6,7-diacetoxycoumarin] has an IC50 ([1]; ID50 (μM) (by kinetic assay)) of over 300 µM and an IC50 [1, 4] of over 300 µM.

Work on `O=c1ccc2ccc(O)cc2o1` [Compound C13, Umbelliferone] yielded an IC50 ([1]; ID50 (μM) (by kinetic assay)) of over 300 µM.

With `O=c1oc2ccccc2cc1O` [Compound C14, 3-hydroxycoumarin] the IC50 ([1]; ID50 (μM) (by kinetic assay)) was over 300 µM.

`O=c1cc(O)c2ccccc2o1` [Compound C15, 4-hydroxycoumarin] gave an IC50 ([1]; ID50 (μM) (by kinetic assay)) of over 300 µM.

For `Cc1c(CC(=O)O)c(=O)oc2c(O)c(O)ccc12` [Compound C16, 7,8-dihydroxy-4-methylcoumarin-3-acetic acid], the IC50 ([1]; ID50 (μM) (by kinetic assay)) was over 300 µM.

`COc1ccc2ccc(=O)oc2c1O` [Compound C17, 7-methoxydaphnetin] gave an IC50 ([1]; ID50 (μM) (by kinetic assay)) of over 300 µM.

In the case of `COc1ccc2ccc(=O)oc2c1OC` [Compound C18, 7,8-dimethoxydaphnetin], the IC50 ([1]; ID50 (μM) (by kinetic assay)) is reported as over 300 µM.

Molecule `COc1cc2ccc(=O)oc2c(O)c1O` [Compound C19, Fraxetin] has an IC50 ([1]; ID50 (μM) (by kinetic assay)) of over 300 µM.

`O=c1cc(-c2ccccc2)c2cc(O)c(O)cc2o1` [Compound C20, Nordalbergin] gave an IC50 ([1]; ID50 (μM) (by kinetic assay)) of over 300 µM.

With `O=c1oc2c(O)c(O)ccc2cc1O` [Compound C21, 3,7,8-trihydroxycoumarin] the mechanism of inhibition [1] was “non-competitive”, the IC50 ([1]; ID50) was 1.6 µM and the IC50 ([1]; ID50 (μM) (by kinetic assay)) was 2.1 µM. For the same molecule, the IC50 [1, 4] was 2.1 µM, the ID90 ([2]; Expt 7-36, 0.1 μM reading used as 100% control) was “ID90 = 4.41 μM” and the ID90 ([2]; Expt 7-37, sigmoidal fit did not converge after 40 iterations) was “ID90 = 6.38 μM”. The “k0 (base)” value ([2]; Avg) was 107.014, the “k1 (max)” value ([2]; Avg) was −101.545 and the “k2 (xhalf)” value ([2]; Avg) was 1.278. The “k3 (rate)” value ([2]; Avg) was 1.337, the “k0 (base)” value ([2]; Expt 7-36) was 79.759 and the “k1 (max)” value ([2]; Expt 7-36) was −74.5116. The “k2 (xhalf)” value ([2]; Expt 7-36) was 2.333, the “k3 (rate)” value ([2]; Expt 7-36) was 0.773 and the “k0 (base)” value [2, 5] was 285.386. For the same molecule, the “k1 (max)” value [2, 5] was −280.039, the “k2 (xhalf)” value [2, 5] was −2.129 and the “k3 (rate)” value [2, 5] was 2.085. For the same molecule, the IC50 ([3]; ID50, Average of Expt 7-36 and 7-37) was 1.61 µM, the IC50 ([3]; ID50, Expt 7-36, 0.1 μM reading used as 100% control) was 2.02 µM and the IC50 ([3]; ID50, Expt 7-37, sigmoidal fit did not converge after 40 iterations) was 1.34 µM.

In the case of `CC(=O)Nc1cc2ccc(OC(C)=O)c(OC(C)=O)c2oc1=O` [Compound C22, 3-aminoacyl-7,8-diacetoxycoumarin], the IC50 ([1]; ID50 (μM) (by kinetic assay)) is reported as 185 µM and the IC50 [1, 4] is reported as 185 µM.

`CCOC(=O)c1cc(=O)oc2cc(O)c(OC)cc12` [FM16, Scopoletin-4-ethyl ester] gave an IC50 ([1]; ID50 (μM) (by kinetic assay)) of 393 µM.

`CCOC(=O)c1cc(=O)oc2cc(O)c(O)cc12` [MC8, Esculetin-4-ethyl ester] showed an IC50 ([1]; ID50) of 28.6 µM, an IC50 ([1]; ID50 (μM) (by kinetic assay)) of 25.2 µM and an IC50 ([1]; ID50 (μm)-by kinetic assay) of 25.2 µM.

Where two headings read alike, the source gives them in different places.
